The values that follow come from article PMC3334285 (Journal of the American Chemical Society, 2012).

For the test, the target named is PksA SAT-KS-MAT (Aspergillus parasiticus, UniProt Q12053). Particulars: 2 mM malonyl-CoA, 10 uM protein, 100 mM K/PO4 pH 7.4, room temp, 60 min; covalent, MAT S993.

On to `CC(C)(COP(=O)(O)OP(=O)(O)OC[C@H]1O[C@@H](n2cnc3c(N)ncnc32)[C@H](O)[C@@H]1OP(=O)(O)O)[C@@H](O)C(=O)NCCC(=O)NCCSC(=O)CC(=O)O` [malonyl-CoA], for which the “RPLC-FTMS of tryptic active site peptides” value is “SAT and MAT transferase domains bound their respective hexanoyl and malonyl substrates”.
